# Reference: the supplement of paper PMC4604168 (melanoma cell lines)
# Some of the results follow. Repeats are few or missing, and single values can be far off.
# Tested on: IST-MEL1
# Assay: cell count relative to DMSO control; melanoma cells; higher = more viable cells
# Details: library dose: low library concentration; 72 h
# 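Note: cell number obtained by counting DAPI-stained nuclei in high-throughput microscope images with image analysis software, screen run in 1,536-well plates.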
row,SMILES,cell count [%]
1,"COc1ccc(C2=N[C@@H](c3ccc(Cl)cc3)[C@@H](c3ccc(Cl)cc3)N2C(=O)N2CCNC(=O)C2)c(OC(C)C)c1 [Nutlin-3] + C/C(O)=C(\C#N)C(=O)Nc1cc(Br)ccc1Br [LFM-A13] (first compound 0.1 µM, partner dose 2 µM)",112
2,"CCCCCCCCCCCCCCCCCCOP(=O)([O-])OC1CC[N+](C)(C)CC1 [Perifosine] + O=C(Oc1ccc([N+](=O)[O-])cc1)N1CCC(C(O)(c2ccc3c(c2)OCO3)c2ccc3c(c2)OCO3)CC1 [JZL184] (first compound 0.4 µM, partner dose 1 µM)",98.6
3,"CCN(CC)CCNC(=O)c1c(C)[nH]c(/C=C2\C(=O)Nc3ccc(F)cc32)c1C [sunitinib] + Cc1cc(SCc2sc(-c3ccc(C(F)(F)F)c(F)c3)nc2C)ccc1OCC(=O)O [GW0742] (first compound 0.4 µM, partner dose 2 µM)",93.6
4,"Nc1nc(F)nc2c1ncn2[C@@H]1O[C@H](CO)[C@@H](O)[C@@H]1O [fludarabine] + C/C(O)=C(\C#N)C(=O)Nc1cc(Br)ccc1Br [LFM-A13] (first compound 0.2 µM, partner dose 2 µM)",93.2
5,"Cc1cc(Nc2cc(N3CCN(C)CC3)nc(/C=C/c3ccccc3)n2)n[nH]1 + C/C(O)=C(\C#N)C(=O)Nc1cc(Br)ccc1Br [LFM-A13] (first compound 0.04 µM, partner dose 2 µM)",102
6,"NC1(c2ccc(-c3nc4ccn5c(=O)[nH]nc5c4cc3-c3ccccc3)cc2)CCC1 + Cc1cc(SCc2sc(-c3ccc(C(F)(F)F)c(F)c3)nc2C)ccc1OCC(=O)O [GW0742] (first compound 0.4 µM, partner dose 2 µM)",85.4
